Results reported in PMC6438966.
These are yes or no findings as the source states them, for the method shown. In cells and extracts the contact can be indirect. Some entries that bind do so weakly or less than the wild type.

Amino acid sequences for entries named in this document (tags omitted). A change or cut given only in a name is not applied to a line headed by its entry.
UniProt Q92466: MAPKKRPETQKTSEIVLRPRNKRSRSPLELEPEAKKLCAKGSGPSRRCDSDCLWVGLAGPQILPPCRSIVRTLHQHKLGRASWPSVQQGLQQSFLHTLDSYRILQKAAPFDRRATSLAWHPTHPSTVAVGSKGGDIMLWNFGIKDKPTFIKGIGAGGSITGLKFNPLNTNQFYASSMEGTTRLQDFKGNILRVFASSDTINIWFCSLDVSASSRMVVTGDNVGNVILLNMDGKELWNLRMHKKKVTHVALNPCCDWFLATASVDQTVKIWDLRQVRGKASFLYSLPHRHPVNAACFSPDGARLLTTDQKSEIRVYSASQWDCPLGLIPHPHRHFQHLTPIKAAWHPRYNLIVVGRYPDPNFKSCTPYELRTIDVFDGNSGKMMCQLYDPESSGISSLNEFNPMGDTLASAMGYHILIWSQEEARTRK
UniProt Q13619: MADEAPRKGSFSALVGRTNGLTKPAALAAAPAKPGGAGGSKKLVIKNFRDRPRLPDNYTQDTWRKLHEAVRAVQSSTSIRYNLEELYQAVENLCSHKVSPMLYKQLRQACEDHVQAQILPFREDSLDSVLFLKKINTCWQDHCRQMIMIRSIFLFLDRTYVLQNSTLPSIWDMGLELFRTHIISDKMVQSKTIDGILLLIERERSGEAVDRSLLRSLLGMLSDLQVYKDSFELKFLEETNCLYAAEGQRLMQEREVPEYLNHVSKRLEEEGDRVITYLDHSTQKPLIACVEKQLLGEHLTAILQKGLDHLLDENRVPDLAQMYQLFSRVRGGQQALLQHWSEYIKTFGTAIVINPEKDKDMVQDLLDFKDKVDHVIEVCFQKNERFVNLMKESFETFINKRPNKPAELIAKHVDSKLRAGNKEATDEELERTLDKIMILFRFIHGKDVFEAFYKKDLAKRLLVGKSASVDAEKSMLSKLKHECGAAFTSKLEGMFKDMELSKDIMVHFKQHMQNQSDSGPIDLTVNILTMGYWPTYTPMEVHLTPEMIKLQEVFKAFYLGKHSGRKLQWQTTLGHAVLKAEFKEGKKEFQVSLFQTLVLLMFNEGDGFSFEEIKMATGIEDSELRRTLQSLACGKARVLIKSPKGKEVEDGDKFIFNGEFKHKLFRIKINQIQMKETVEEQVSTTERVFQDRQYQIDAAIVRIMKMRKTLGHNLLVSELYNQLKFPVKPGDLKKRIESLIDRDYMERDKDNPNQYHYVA
UniProt Q16531: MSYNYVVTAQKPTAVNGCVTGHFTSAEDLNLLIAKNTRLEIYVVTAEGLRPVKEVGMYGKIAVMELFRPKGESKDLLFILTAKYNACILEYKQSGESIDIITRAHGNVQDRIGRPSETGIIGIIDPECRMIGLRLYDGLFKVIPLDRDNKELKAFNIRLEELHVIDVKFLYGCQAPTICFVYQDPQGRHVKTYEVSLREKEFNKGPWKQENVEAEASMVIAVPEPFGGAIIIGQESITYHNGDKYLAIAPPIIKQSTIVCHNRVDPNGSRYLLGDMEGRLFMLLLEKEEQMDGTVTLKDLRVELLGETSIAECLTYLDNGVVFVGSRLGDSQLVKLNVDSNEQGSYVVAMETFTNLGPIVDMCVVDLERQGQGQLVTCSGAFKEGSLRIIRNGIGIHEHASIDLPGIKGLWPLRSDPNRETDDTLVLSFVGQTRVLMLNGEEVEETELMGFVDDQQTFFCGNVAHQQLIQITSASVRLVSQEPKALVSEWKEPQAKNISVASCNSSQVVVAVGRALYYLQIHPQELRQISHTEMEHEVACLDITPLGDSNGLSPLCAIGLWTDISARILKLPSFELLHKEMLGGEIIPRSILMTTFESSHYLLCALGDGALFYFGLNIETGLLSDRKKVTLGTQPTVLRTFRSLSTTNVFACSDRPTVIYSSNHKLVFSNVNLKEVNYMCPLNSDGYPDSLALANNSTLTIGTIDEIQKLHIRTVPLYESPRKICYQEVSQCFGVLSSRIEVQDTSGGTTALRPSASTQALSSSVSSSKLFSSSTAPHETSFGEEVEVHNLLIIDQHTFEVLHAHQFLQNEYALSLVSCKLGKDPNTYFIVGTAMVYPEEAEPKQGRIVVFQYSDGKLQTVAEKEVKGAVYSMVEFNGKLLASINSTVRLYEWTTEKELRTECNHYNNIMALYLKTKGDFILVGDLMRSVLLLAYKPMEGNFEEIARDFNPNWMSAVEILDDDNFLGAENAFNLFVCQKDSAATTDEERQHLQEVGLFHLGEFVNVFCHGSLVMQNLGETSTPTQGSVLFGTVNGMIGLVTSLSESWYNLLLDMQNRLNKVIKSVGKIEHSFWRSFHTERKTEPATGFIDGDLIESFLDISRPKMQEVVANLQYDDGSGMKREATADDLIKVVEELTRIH
UniProt P45448: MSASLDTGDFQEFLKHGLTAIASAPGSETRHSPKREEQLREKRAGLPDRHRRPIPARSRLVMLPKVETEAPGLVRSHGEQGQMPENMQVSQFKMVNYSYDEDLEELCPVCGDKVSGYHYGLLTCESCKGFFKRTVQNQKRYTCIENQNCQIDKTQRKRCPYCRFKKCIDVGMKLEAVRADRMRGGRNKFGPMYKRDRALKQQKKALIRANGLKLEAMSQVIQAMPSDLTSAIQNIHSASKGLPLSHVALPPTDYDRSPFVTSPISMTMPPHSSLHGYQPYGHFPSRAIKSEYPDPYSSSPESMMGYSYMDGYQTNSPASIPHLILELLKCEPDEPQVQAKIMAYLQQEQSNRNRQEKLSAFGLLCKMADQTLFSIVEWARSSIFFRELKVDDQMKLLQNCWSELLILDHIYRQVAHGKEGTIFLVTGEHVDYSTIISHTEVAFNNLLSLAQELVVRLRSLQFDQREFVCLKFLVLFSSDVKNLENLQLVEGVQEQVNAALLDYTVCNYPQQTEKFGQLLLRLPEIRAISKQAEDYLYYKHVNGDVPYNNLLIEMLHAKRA
UniProt O00482: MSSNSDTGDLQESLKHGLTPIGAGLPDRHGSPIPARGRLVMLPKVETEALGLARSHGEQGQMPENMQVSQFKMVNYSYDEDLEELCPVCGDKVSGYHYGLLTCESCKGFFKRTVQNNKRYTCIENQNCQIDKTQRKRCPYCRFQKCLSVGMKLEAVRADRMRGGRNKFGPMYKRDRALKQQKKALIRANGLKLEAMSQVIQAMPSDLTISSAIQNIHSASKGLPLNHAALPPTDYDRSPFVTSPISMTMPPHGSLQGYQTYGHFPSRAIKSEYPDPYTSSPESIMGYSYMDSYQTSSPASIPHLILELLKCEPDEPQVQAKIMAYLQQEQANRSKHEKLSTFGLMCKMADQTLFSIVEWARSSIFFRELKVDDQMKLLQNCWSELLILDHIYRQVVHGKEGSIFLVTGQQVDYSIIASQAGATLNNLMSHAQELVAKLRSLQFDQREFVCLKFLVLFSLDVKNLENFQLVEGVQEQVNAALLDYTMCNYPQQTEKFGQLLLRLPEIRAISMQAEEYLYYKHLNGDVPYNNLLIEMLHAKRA
UniProt Q13620: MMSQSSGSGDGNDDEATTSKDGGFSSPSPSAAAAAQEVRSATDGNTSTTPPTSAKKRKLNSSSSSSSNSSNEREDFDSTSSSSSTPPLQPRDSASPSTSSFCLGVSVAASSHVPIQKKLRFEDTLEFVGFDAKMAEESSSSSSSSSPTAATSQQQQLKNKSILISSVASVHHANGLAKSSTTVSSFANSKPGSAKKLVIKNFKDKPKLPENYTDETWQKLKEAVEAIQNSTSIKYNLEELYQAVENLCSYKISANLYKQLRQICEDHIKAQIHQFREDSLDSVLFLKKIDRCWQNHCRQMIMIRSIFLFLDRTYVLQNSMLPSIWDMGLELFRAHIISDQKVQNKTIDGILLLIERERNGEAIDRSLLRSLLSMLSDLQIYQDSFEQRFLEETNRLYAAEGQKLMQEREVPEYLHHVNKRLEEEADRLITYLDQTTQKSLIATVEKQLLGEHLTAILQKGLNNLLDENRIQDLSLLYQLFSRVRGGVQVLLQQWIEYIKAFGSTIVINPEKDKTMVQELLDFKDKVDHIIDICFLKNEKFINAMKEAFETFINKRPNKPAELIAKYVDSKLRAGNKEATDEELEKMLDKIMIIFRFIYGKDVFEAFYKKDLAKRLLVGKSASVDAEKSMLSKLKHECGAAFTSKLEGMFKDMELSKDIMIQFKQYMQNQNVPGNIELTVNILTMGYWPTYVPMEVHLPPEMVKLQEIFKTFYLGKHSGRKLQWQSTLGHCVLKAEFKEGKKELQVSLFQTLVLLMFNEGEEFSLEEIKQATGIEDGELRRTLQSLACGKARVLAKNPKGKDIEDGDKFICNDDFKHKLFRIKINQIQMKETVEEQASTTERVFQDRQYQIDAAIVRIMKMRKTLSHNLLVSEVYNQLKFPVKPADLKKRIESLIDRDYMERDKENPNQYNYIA

Assays:
[1] = target: endogenous DDB2 of HepG2 cells (human (endogenous in HepG2)) (UniProt Q92466); experiment: co-IP; HepG2 cell lysates immunoprecipitated with anti-DDB2 antibody or control IgG, immunoblot; endogenous proteins
GST-DDB2 = GST-DDB2 (UniProt Q92466); experiment: pull-down; bead-bound GST or GST-DDB2 (glutathione-sepharose, from E. coli) incubated overnight at 4 °C with lysates of transfected HEK293T cells; washed with PBS/Triton X-100; immunoblot with anti-LRH-1-N or anti-GFP; only the target purified
[2] = target: Myc-DDB2 (DNA damage-binding protein 2) (UniProt Q92466); experiment: co-IP; HEK293T cells transfected with EGFP-hLRH-1 and/or Myc-DDB2, MG-132 (10 uM) for 6 h; lysates immunoprecipitated with anti-Myc antibody, immunoblot

| Substance | binding [1] | binding (GST-DDB2) | binding [2] |
| --- | --- | --- | --- |
| endogenous CUL4A of HepG2 cells (from UniProt Q13619 1-759) (other; other documents disagree on this pair) | binds |  |  |
| endogenous DDB1 of HepG2 cells (from UniProt Q16531 1-1140) | binds |  |  |
| EGFP-mLRH-1 (mouse liver receptor homologue-1) (from UniProt P45448 1-560) |  | binds |  |
| EGFP-hLRH-1 (human liver receptor homologue-1) (from UniProt O00482 1-541) |  | binds | binds |
| EGFP-LRH-1(1-169) (from UniProt P45448 1-169) (domain or fragment) |  | binds |  |
| endogenous DDB1 (DNA damage binding-protein 1) of HEK293T cells (from UniProt Q16531 1-1140) |  |  | binds |
| EGFP-LRH-1(193-560) (from UniProt P45448 193-560) (domain or fragment) |  | no binding |  |
| EGFP-LRH-1(1-116) (from UniProt P45448 1-116) (domain or fragment) |  | no binding |  |
| endogenous CUL4B of HepG2 cells (from UniProt Q13620 1-913) | binds |  |  |
| endogenous LRH-1 of HepG2 cells (from UniProt O00482 1-541) | binds |  |  |
| EGFP-LRH-1(226-520) (from UniProt P45448 226-520) (domain or fragment) |  | no binding |  |
| EGFP-LRH-1(117-168) (from UniProt P45448 117-168) (domain or fragment) |  | binds |  |
| EGFP-LRH-1(1-191) (from UniProt P45448 1-191) (domain or fragment) |  | binds |  |
